Where a name gives a salt, the structure may show the parent alone. For some of these results: The hits were mostly taken out for another list; the other results follow. The list shows a part of the results, in another mix than the full data.

Assay in all cases: phenotypically active (imaging signature differs from DMSO and reproducible) at any of 0.3-9 uM (binary (1 = active, 0 = inactive)); higher = active
Common to all, as to conditions: treatment time: 24 h

For assay [1], the system named is HepG2-ACTB-RAB5A. A digest of the protocol: (§1)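 Live-cell features were measured per well and normalised to solvent control wells after fifteen gene-edited A549, HepG2 and WPMY1 reporter lines had been treated for 24 h at 0.3, 1, 3 or 9 µM in four wells each. A condition was deviating when ≥3 of 4 wells sat beyond the 95th percentile of control Euclidean distances. It was reproducible when the median replicate Pearson correlation exceeded the 95th percentile of non-replicates. Phenotypic activity demanded both.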

The test system of assay [2] is HepG2-CANX-COX4. A digest of the protocol:
as §1

For assay [3], the system named is HepG2-GM130-SQSTM1. A digest of the protocol:
as §1

The test system of assay [4] is HepG2-TP53BP1-CLTA. A digest of the protocol:
as §1

For assay [5], the system named is HepG2-TUBA1B-RELA. A digest of the protocol:
as §1

Assay [6] concerns WPMY1-ACTB-RAB5A. A digest of the protocol:
as §1

Assay [7] relates to WPMY1-CANX-COX4. A digest of the protocol: as §1
The test system of assay [8] is WPMY1-GM130-SQSTM1. A digest of the protocol:
as §1

Assay [9] concerns WPMY1-TP53BP1-CLTA. A digest of the protocol:
as §1

Assay [10] deals with WPMY1-TUBA1B-RELA. A digest of the protocol: as §1

In the case of `CN1[C@@H]2CC[C@H]1C[C@@H](OC(=O)C(O)c1ccccc1)C2` (stereo not given in full) [Homatropine HBr], the phenotypically active in assay [1], in assay [2], in assay [3], in assay [4], in assay [5] and in [6] was inactive: 0 throughout. Besides, the phenotypically active in assay [7], in assay [8], in [9] and in [10] was inactive: 0 in each case.
On to `O=C1NC(=O)c2c1c(-c1ccccc1)cc1[nH]c3ccc(O)cc3c21`, for which the phenotypically active in [1], in assay [2], in [3], in assay [4], in [5] and in [6] was active: 1 throughout. The phenotypically active in [7], in assay [8], in assay [9] and in assay [10] was active: 1 in each case.
Consider `COc1cc(N2CCN(C(C)=O)CC2)ccc1Nc1ncc(Cl)c(Nc2ccc(N3CCN(C(C)=O)CC3)cc2OC)n1`, for which the phenotypically active was active: 1 in assay [1]; active: 1 in assay [2]; active: 1 in [3]; active: 1 in [4]; active: 1 in assay [5]; inactive: 0 in assay [6]. Also, the phenotypically active in [7] was active: 1; in assay [8], active: 1; in assay [9], active: 1; in assay [10] it was inactive: 0.
For the compound `COC(=O)[C@H](CCCNC(=N)N)NS(=O)(=O)c1ccc(C)cc1` [TAME hydrochloride], the phenotypically active in [1], in assay [2], in assay [3], in assay [4], in assay [5] and in [6] was inactive: 0 in each case. Further, the phenotypically active in [7], in [8], in [9] and in assay [10] was inactive: 0 throughout.

These data come from the supplement of paper PMC7411054.
